T1: human BMP-11 (GDF-11; R&D Systems) (human, UniProt O95390 299-407)
T1 sequence (looked up): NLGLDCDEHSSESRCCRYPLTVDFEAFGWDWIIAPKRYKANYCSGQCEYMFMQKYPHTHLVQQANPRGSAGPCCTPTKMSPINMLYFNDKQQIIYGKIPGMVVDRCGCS

T2: human Activin A (R&D Systems) (human, UniProt P08476 311-426)
T2 sequence (looked up): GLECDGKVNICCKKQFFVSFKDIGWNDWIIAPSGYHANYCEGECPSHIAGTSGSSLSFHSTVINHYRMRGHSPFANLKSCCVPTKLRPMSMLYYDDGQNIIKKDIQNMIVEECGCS

T3: human myostatin (mature, recombinant; R&D Systems) (human, UniProt O14793 267-375)
T3 construct: biotinylated in the mRNA display selection; also called GDF-8; mature myostatin
T3 sequence: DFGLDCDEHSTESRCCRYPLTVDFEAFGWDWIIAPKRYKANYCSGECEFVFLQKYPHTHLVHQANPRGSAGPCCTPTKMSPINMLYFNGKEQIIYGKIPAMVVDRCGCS


How the values were obtained:
[1] = target: T1, human BMP-11 (GDF-11; R&D Systems); assay: cell-based or functional assay
[2] = target: T2, human Activin A (R&D Systems); assay: cell-based or functional assay
[3] = target: T3, human myostatin (mature, recombinant; …); assay: SPR format B, 25C
[4] = target: T3, human myostatin (mature, recombinant; …); assay: cell-based or functional assay

Row | Binder | ARE-luciferase IC50 [1] [nM] | ARE-luciferase IC50 [2] [nM] | Kd [3] [nM] | ARE-luciferase IC50 [4] [nM]
1 | PRD-1285 (Fc fusion, Fc-linker-Adnectin (3115_E06)) [no letters for human IgG1 Fc and a few adjoining residues]QLEESAAEAQDGELDGVSDVPRDLEVVAATPTSLLISWDAPAGLARYYRITYGETGGNSPVQEFTVVGRGNTATISGLKPGVDYTITVYAVTIFRDGPVTWDPISINYRTEI | 0.03 | 216 | – | –
2 | PRD-1286 (Fc fusion) [no letters for human IgG1 Fc and a few adjoining residues]QLEESAAEAQDGELDGVSDVPRDLEVVAATPTSLLISWDAPKGLARYYRITYGETGGNSPVQEFTVVGRGNTATISGLKPGVDYTITVYAVTIFRDGPVTWDPISINYRTEI | 0.11 | 94 | – | –
3 | PRD-1284 (Fc fusion, Fc-linker-Adnectin (3115_D04)) [no letters for human IgG1 Fc and a few adjoining residues]QLEESAAEAQDGELDGVSDVPRDLEVVAATPTSLLISWDAPRGLARYYRITYGETGGNSPVQEFTVFGRGTTATISGLKPGVDYTITVYAVTIDRDGTRSFDPISINYRTEI | 0.04 | 44 | – | –
4 | PRD-1304 (Fc fusion, Adnectin (3146_A08)-linker-Fc) GVSDVPRDLEVVAATPTSLLISWSLPNPGNAHYYRITYGETGGNSPVQEFTVPGRGVTATISGLKPGVDYTITVYAVTVTDTGFITYKPISINYRTEI[no letters for human IgG1 Fc with changes] | 0.07 | 45 | – | –
5 | PRD-1171 (Fc fusion, Adnectin (2987_H07)-linker-Fc) GVSDVPRDLEVVAATPTSLLISWTLPHAGRAHYYRITYGETGGNSPVQEFTVPGRGVTATISGLKPGVDYTITVYAVTVTTTKVIHYKPISINYRTEI[no letters for human IgG1 Fc with changes] | 0.2 | 19 | – | –
6 | PRD-1180 (Fc fusion, Fc-linker-Adnectin (2987_H07)) [no letters for human IgG1 Fc]SGSGSGSGSGSGVSDVPRDLEVVAATPTSLLISWTLPHAGRAHYYRITYGETGGNSPVQEFTVPGRGVTATISGLKPGVDYTITVYAVTVTTTKVIHYKPISINYRTEI | 0.11 | 14 | – | –
7 | PRD-1174 (Fc fusion, Adnectin (2987_H07)-linker-Fc) GVSDVPRDLEVVAATPTSLLISWTLPHAGRAHYYRITYGETGGNSPVQEFTVPGRGVTATISGLKPGVDYTITVYAVTVTTTKVIHYKPISINYRTEIESPKAQASSVPTAQPQAEGL[no letters for human IgG1 Fc] | 0.1 | 4 | – | –
8 | PRD-1173 (Fc fusion, Adnectin (2987_H07)-linker-Fc) GVSDVPRDLEVVAATPTSLLISWTLPHAGRAHYYRITYGETGGNSPVQEFTVPGRGVTATISGLKPGVDYTITVYAVTVTTTKVIHYKPISINYRTEI[no letters for human IgG1 Fc] | 0.1 | 6 | – | –
9 | PRD-1175 (Fc fusion, Fc-linker-Adnectin (2987_H07)) [no letters for human IgG1 Fc]GGGGSGGVSDVPRDLEVVAATPTSLLISWTLPHAGRAHYYRITYGETGGNSPVQEFTVPGRGVTATISGLKPGVDYTITVYAVTVTTTKVIHYKPISINYRTEI | 0.28 | 19 | – | –
10 | PRD-932 (Fc fusion, Fc-linker-Adnectin (2525_D05); bivalent Fc) [no letters for human IgG1 Fc with changes and a few adjoining residues]GGGGSGGVSDVPRDLEVVAATPTSLLISWSLPYAGHLNYYRITYGETGGNSPVQEFTVPGRGVTATISGLKPGVDYTITVYAVTLTKSQLIHYMPISINYRTEI | – | – | 1.43 | 0.24
11 | PRD-1178 (Fc fusion, Fc-linker-Adnectin (2987_H07)) [no letters for human IgG1 Fc]PDEPGGSGVSDVPRDLEVVAATPTSLLISWTLPHAGRAHYYRITYGETGGNSPVQEFTVPGRGVTATISGLKPGVDYTITVYAVTVTTTKVIHYKPISINYRTEI | 0.25 | 16 | – | –
12 | PRD-1288 (Fc fusion) [no letters for human IgG1 Fc and a few adjoining residues]QLEESAAEAQDGELDGVSDVPRDLEVVAATPTSLLISWSLPHQGKANYYRITYGETGGNSPVQEFTVPGRGVTATISGLKPGVDYTITVYAVTVTDTGYLKYKPISINYRTEI | 0.1 | > 1000 | – | –
13 | PRD-1177 (Fc fusion, Fc-linker-Adnectin (2987_H07)) [no letters for human IgG1 Fc and a few adjoining residues]QLEESAAEAQDGELDGVSDVPRDLEVVAATPTSLLISWTLPHAGRAHYYRITYGETGGNSPVQEFTVPGRGVTATISGLKPGVDYTITVYAVTVTTTKVIHYKPISINYRTEI | 0.28 | 21 | – | –
14 | PRD-1302 (Fc fusion, Adnectin (3115_E06)-linker-Fc) GVSDVPRDLEVVAATPTSLLISWDAPAGLARYYRITYGETGGNSPVQEFTVVGRGNTATISGLKPGVDYTITVYAVTIFRDGPVTWDPISINYRTEI[no letters for human IgG1 Fc with changes] | 0.02 | 14 | – | –

Further lines, results first:

Row | ARE-luciferase IC50 [1] [nM] | ARE-luciferase IC50 [2] [nM] | Kd [3] [nM] | ARE-luciferase IC50 [4] [nM] | Binder
15 | 0.05 | 1000 | – | – | PRD-1472 (Fc fusion, Fc-linker-Adnectin (3115_E06)) [no letters for human IgG1 Fc and a few adjoining residues]QLEESAAEAQEGELEGVSDVPRDLEVVAATPTSLLISWDAPAGLARYYRITYGETGGNSPVQEFTVVGRGNTATISGLKPGVDYTITVYAVTIFRDGPVTWDPISINYRTEI
16 | 0.06 | 125 | – | – | PRD-1473 (Fc fusion) [no letters for human IgG1 Fc and a few adjoining residues]QLEESAAEAQEGELEGVSDVPRDLEVVAATPTSLLISWDAPKGLARYYRITYGETGGNSPVQEFTVVGRGNTATISGLKPGVDYTITVYAVTIFRDGPVTWDPISINYRTEI
17 | 0.07 | 113 | – | – | PRD-1305 (Fc fusion) GVSDVPRDLEVVAATPTSLLISWSLPHQGKANYYRITYGETGGNSPVQEFTVPGRGVTATISGLKPGVDYTITVYAVTVTDTGYLKYKPISINYRTEI[no letters for human IgG1 Fc with changes]
18 | – | > 1000 | – | – | PRD-1474 (Fc fusion) [no letters for human IgG1 Fc and a few adjoining residues]QLEESAAEAQEGELEGVSDVPRDLEVVAATPTSLLISWSLPHQGKANYYRITYGETGGNSPVQEFTVPGRGVTATISGLKPGVDYTITVYAVTVTDTGYLKYKPISINYRTEI
19 | 0.16 | 60 | – | – | PRD-1471 (Fc fusion, Fc-linker-Adnectin (2987_H07)) [no letters for human IgG1 Fc and a few adjoining residues]QLEESAAEAQEGELEGVSDVPRDLEVVAATPTSLLISWTLPHAGRAHYYRITYGETGGNSPVQEFTVPGRGVTATISGLKPGVDYTITVYAVTVTTTKVIHYKPISINYRTEI
20 | 0.8 | > 1000 | – | – | PRD-1287 (Fc fusion, Fc-linker-Adnectin (3146_A08)) [no letters for human IgG1 Fc and a few adjoining residues]QLEESAAEAQDGELDGVSDVPRDLEVVAATPTSLLISWSLPNPGNAHYYRITYGETGGNSPVQEFTVPGRGVTATISGLKPGVDYTITVYAVTVTDTGFITYKPISINYRTEI
21 | 0.03 | 314 | – | – | PRD-1303 (Fc fusion) GVSDVPRDLEVVAATPTSLLISWDAPKGLARYYRITYGETGGNSPVQEFTVVGRGNTATISGLKPGVDYTITVYAVTIFRDGPVTWDPISINYRTEI[no letters for human IgG1 Fc with changes]
22 | 0.06 | 15 | – | – | PRD-1301 (Fc fusion, Adnectin (3115_D04)-linker-Fc) GVSDVPRDLEVVAATPTSLLISWDAPRGLARYYRITYGETGGNSPVQEFTVFGRGTTATISGLKPGVDYTITVYAVTIDRDGTRSFDPISINYRTEI[no letters for human IgG1 Fc with changes]
